Reference: PubChem BioAssay AID485281 (National Center for Advancing Translational Sciences (NCATS), 2010)
The campaign covered roughly 350,000 compounds. About 260 (0.074%) were called active. This list was built around the results that the source calls inconclusive (neither active nor inactive); the mix of calls is not that of the screen. The call rests on the fitted dose curve; in most records, active means well fitted inhibition curve with a large enough effect; inconclusive means small, poorly fitted or top-dose-only effect; inactive means no such curve, though single readings can be large or run the other way. Potencies beside an inconclusive call are fits to weak or partial responses and may not hold up.

Each compound was assayed against Ferritin light chain (Equus caballus) (UniProt P02791) (assay: qHTS Assay for Identification of Novel General Anesthetics). Conditions: apoferritin/1-aminoanthracene competitive binding, fluorescence; series mostly up to 77.5 µM.
Chain of UniProt P02791 (P02791 whole entry, looked up): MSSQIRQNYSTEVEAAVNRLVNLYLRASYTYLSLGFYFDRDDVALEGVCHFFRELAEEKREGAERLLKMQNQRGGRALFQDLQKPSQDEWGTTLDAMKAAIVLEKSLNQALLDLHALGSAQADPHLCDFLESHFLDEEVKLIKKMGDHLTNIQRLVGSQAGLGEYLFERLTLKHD
How it was run: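 Steps: apoferritin (10 uM) was premixed with half-saturated 1-AMA in PBS, compounds were pin-transferred, plates stood 10 min at room temperature, fluorescence was read at 380/535 nm, and curves were fitted with a Hill equation.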
Further: nearly all actives have a fitted effect of over 20% in size.
Potency means the concentration at half of the fitted maximal effect; tags describe the fitted curve by direction and shape.

Row | Compound | Potency
1 | CC(C)(C)NS(=O)(=O)c1ccc(N2C(=O)c3ccccc3C2=O)cc1 | inconclusive: 39.8 µM [inhibitor, single point]
2 | Cc1ccc(C(=O)Nc2ccccc2-c2ccccc2)cc1[N+](=O)[O-] | inconclusive: 28.2 µM [inhibitor, partial curve]
3 | Cc1ccc2nc(SCC(=O)c3ccc(Cl)s3)[nH]c2c1 | inconclusive: 35.5 µM [inhibitor, partial curve]
4 | Cc1ccc(-c2cc(N)n[nH]2)cc1 | inconclusive: 22.4 µM [inhibitor, single point]
5 | COc1ccccc1/C=C(/C(=O)OCC(=O)Nc1ccccc1C)c1ccccc1 | inconclusive: 25.1 µM [inhibitor, partial curve]
6 | COc1ccccc1CNC(=O)CCC1N=C2c3ccccc3N=C(SCc3ccc(C)cc3)N2C1=O (stereo not drawn) | inconclusive: 50.1 µM [inhibitor, single point]
7 | COc1ccc(C(=O)/C=C2/c3ccccc3CC(C)(C)N2C)cc1 | inconclusive: 28.2 µM [inhibitor, partial curve]
8 | Cc1ccc(C=C2C(Cl)=C(Cl)C(Cl)=C2Cl)cc1 | inactive
9 | NC(=O)c1cccn1Cc1cccc(Cl)c1 | inconclusive: 14.1 µM [inhibitor, partial curve]
10 | CC1CCC(N2CC(=O)N(C3CCCCC3)C(c3ccc(F)cc3)C2=O)CC1 (stereo not drawn) | inconclusive: 7.08 µM [inhibitor, single point]
11 | CC(C)Sc1ncnc2c1oc1ccccc12 | inconclusive: 35.5 µM [inhibitor, partial curve]
12 | CSC1=NC(C)(C)C=C(/C=C/c2ccc(Cl)cc2Cl)N1 | inconclusive: 20 µM [inhibitor, partial curve]
13 | COC(=O)c1ccc(/C=N/OCC(=O)NCc2ccc(F)cc2)cc1 | inconclusive: 14.1 µM [inhibitor, partial curve]
14 | CN1C(=O)SC(Nc2cccc3ccccc23)C1=O (stereo not drawn) | inactive
15 | N#Cc1c2n(c3c(=O)n(CC(=O)c4ccc(Br)cc4)cnc13)CCCC2 | inconclusive: 17.8 µM [inhibitor, partial curve]
16 | FC(F)(F)c1cccc(Oc2nc(-c3ccccc3)nnc2C(F)(F)F)c1 | inconclusive: 35.5 µM [inhibitor, partial curve]
17 | Cc1cc(C)cc(N=C2NC(=O)/C(=C/c3cccs3)S2)c1 | inactive
18 | CCCOc1ccc(C(=O)Nc2ccc(Cl)c(-c3nc4ncccc4o3)c2)cc1 | inconclusive: 8.91 µM [inhibitor, full curve, poor fit]
19 | CCOc1ccc(CCNC(=O)CCc2c(C)nc3cc(-c4ccccc4OC)nn3c2C)cc1 | inactive
20 | CSc1ccc(CCNC(=O)CN2C(=O)c3cccnc3Oc3ccc(Cl)cc32)cc1 | inconclusive: 10 µM [inhibitor, full curve]
21 | COc1ccccc1N1CCN(CC(O)COc2c(OC)cccc2OC)CC1 (stereo not drawn) | inactive
22 | Cc1cc(=O)oc2c3c4c(cc12)OCCN4CCC3 | inactive
23 | Cc1ccc(S(=O)(=O)Nc2ccc3c(c2)OCCO3)cc1 | inconclusive: 22.4 µM [inhibitor, partial curve]

Row | Compound | Potency
24 | COc1ccc(NC(=O)CC2C(=O)N(c3ccc(F)cc3)C(=S)N2NC(=O)c2ccc(Cl)cc2)cc1 (stereo not drawn) | inactive
25 | COCCCNC(=O)CSc1nc2ccccc2c(=O)n1Cc1ccc2c(c1)OCO2 | inactive
26 | O=C(CC(c1ccccc1)c1cc(Br)ccc1O)N1CCCCC1 (stereo not drawn) | inconclusive: 28.2 µM [inhibitor, single point]
27 | O=C(/C=C/c1ccccc1Cl)c1ccc[nH]1 | inconclusive: 50.1 µM [inhibitor, single point]
28 | O=C(O)CC/C(=C\c1ccc(N2CCCC2)c([N+](=O)[O-])c1)c1nc2ccccc2s1 | inconclusive: 11.2 µM [inhibitor, partial curve]
29 | O=C(NC1CCN(C(=S)NCc2ccco2)CC1)NC12CC3CC(CC(C3)C1)C2 | inconclusive: 39.8 µM [inhibitor, partial curve]
30 | COc1ccccc1NC1=C(C)C(=O)CC1 | inactive
31 | C/C(=N\O)C(C)(C)Nc1cccc(Br)c1 | inconclusive: 12.6 µM [inhibitor, partial curve]
32 | CCOc1ccc(-c2nc(SCC(=O)NC3CCCC3)c(-c3ccccc3)[nH]2)cc1OC | inactive
33 | COc1ccccc1NC(=O)c1ccccc1NS(=O)(=O)c1cccs1 | inactive
34 | CCOC(=O)C1=C(C)OC2(O)c3ccccc3C(=O)C12O (stereo not drawn) | inactive
35 | COc1ccccc1-c1c(C)nn2c(N3CCCCCC3)cc(C)nc12 | inactive
36 | COC(=O)CN(C(=S)Nc1ccc(F)cc1)C1CC(=O)N(c2ccc(OC)cc2)C1=O (stereo not drawn) | inactive
37 | CCCCCCCCC(=O)N/N=C/c1ccccn1 | active: 12.6 µM
38 | C[C@@H](C(=O)NCc1ccccn1)[C@H]1C[C@]1(C)[C@H](NC(=O)OCc1ccccc1)c1ccccc1 | inconclusive: 25.1 µM [inhibitor, single point]
39 | CCC(C(=O)Nc1cc(F)ccc1F)n1nc(-c2cc(C)ccc2C)ccc1=O (stereo not drawn) | inconclusive: 25.1 µM [inhibitor, partial curve]
40 | COc1cc(C(=S)N2CCOCC2)cc(OC)c1OC(=O)c1ccc(C)cc1 | inconclusive: 15.8 µM [inhibitor, partial curve]
41 | COC(=O)c1sccc1S(=O)(=O)N(CC(=O)Nc1c(C)cccc1C)c1ccc(C)c(C)c1 | inconclusive: 28.2 µM [inhibitor, partial curve]
42 | Cc1nc2cc(C(=O)OCC(=O)NC(C)C(C)C)ccc2n1-c1ccccc1 (stereo not drawn) | inconclusive: 25.1 µM [inhibitor, partial curve]
43 | COc1ccc2c(c1)c(=O)c(S(=O)(=O)c1ccc(C)cc1)cn2Cc1ccccc1C | inconclusive: 15.8 µM [inhibitor, partial curve]
44 | CC1CCCC(NS(=O)(=O)c2cc3c(cc2Cl)NC(=O)CO3)C1C (stereo not drawn) | inconclusive: 28.2 µM [inhibitor, partial curve]
45 | Oc1c(Cl)cc(Cl)c(Cl)c1Cc1c(O)c(Cl)cc(Cl)c1Cl | inconclusive: 31.6 µM [inhibitor, single point]
46 | Cc1c(Cl)cccc1NC(=O)Nc1nnc(N(C)Cc2ccccc2)s1 | inconclusive: 14.1 µM [inhibitor, partial curve]

Row | Compound | Potency
47 | COc1ccccc1OCC(=O)Nc1ccccc1C(=O)NCc1ccco1 | inactive
48 | O=C(CN1C(=O)/C(=C/c2ccccc2)SC1=S)Nc1cccnc1 | inconclusive: 28.2 µM [inhibitor, partial curve]
49 | O=C(C1=C[C@@H](c2coc3ccccc3c2=O)C[C@@H](OCc2ccc(CO)cc2)O1)N1CCN(Cc2ccccc2)CC1 | inconclusive: 28.2 µM [inhibitor, partial curve]
50 | Cc1c(NC(=O)C(C)(C)Oc2ccc(Cl)cc2)cccc1-c1nc2ncccc2o1 | inconclusive: 14.1 µM [inhibitor, partial curve]
51 | Cc1c(Cl)c([N+](=O)[O-])nn1Cc1ccc(C(=O)N/N=C\c2ccccn2)o1 | inconclusive: 28.2 µM [inhibitor, single point]
52 | Clc1ccccc1OCCCCN1CCCCC1 | inactive
53 | Cc1ccc(C)c(OCC(=O)Nc2ccc(S(=O)(=O)Nc3onc(C)c3C)cc2)c1C | inconclusive: 5.62 µM [inhibitor, partial curve]
54 | CC(NCc1ccc(S(N)(=O)=O)cc1)C(=O)Nc1cc([N+](=O)[O-])ccc1Cl (stereo not drawn) | inconclusive: 35.5 µM [inhibitor, single point]
55 | COc1ccc(C(=O)COC(=O)c2ccco2)cc1 | inconclusive: 31.6 µM [inhibitor, partial curve]
56 | CC1CCCN(C(=O)c2sc3cc([N+](=O)[O-])ccc3c2Cl)C1 (stereo not drawn) | inconclusive: 25.1 µM [inhibitor, partial curve]
57 | O=C(Nc1ccc(Nc2ccccc2)cc1)Nc1ccccc1Cl | inconclusive: 39.8 µM [inhibitor, single point]
58 | CCOC(=O)C(C(=O)OCC)C(Nc1ccc(Br)cc1)c1ccccc1 (stereo not drawn) | inconclusive: 25.1 µM [inhibitor, partial curve]
59 | CC(=O)N(CCCCN1C(=O)c2ccccc2C1=O)c1ccc(C)cc1 | inconclusive: 25.1 µM [inhibitor, partial curve]
60 | Nc1c(C(=O)NC2CC2)c2nc3ccccc3nc2n1-c1ccc2c(c1)OCO2 | inactive
61 | O=C(Nc1ccc(OC(F)(F)F)cc1)Oc1ccccc1N1CCOCC1 | inactive
62 | O=C(NCc1cccnc1)/C(=C\c1ccc(-c2cccc(Cl)c2)o1)S(=O)(=O)c1ccccc1 | inconclusive: 15.8 µM [inhibitor, partial curve]
63 | COc1ccc(C)cc1NC(=O)Cn1c(=O)ccc2cc(S(=O)(=O)N3CCC(C)CC3)ccc21 | inconclusive: 8.91 µM [inhibitor, full curve, poor fit]
64 | CCN(c1ccccc1)S(=O)(=O)c1ccc(C(=O)N(CCCN(C)C)c2nc3cc4c(cc3s2)OCO4)cc1 | inconclusive: 35.5 µM [inhibitor, partial curve, poor fit]
65 | Oc1ccc(Br)cc1-c1cc(-c2ccco2)[nH]n1 | inconclusive: 35.5 µM [inhibitor, partial curve]
66 | COc1cccc(/C(C)=N/N=C(\C)c2cccc(OC)c2)c1 | inconclusive: 39.8 µM [inhibitor, single point]
67 | O=C(CCS(=O)(=O)c1ccccc1)Nc1ncc([N+](=O)[O-])s1 | inactive
68 | COc1cc(OC)c2c(O)c3c(c(-c4c5c(c(O)c6c(OC)cc(OC)cc46)CO[C@@H](C)[C@H]5O)c2c1)[C@H](O)[C@H](C)OC3 | inconclusive: 50.1 µM [inhibitor, single point]
